Results published in paper PMC12040169 (PLOS Biology, 2025).
Some of the results follow.

system: T1, C. trachomatis L2/434/Bu expressing GFP (CTL2-GFP); set-up: species or system HeLa; C. trachomatis total inclusion area by high-content imaging, normalised to DMSO; conditions: total inclusion area; 28.5 h, 10 µM; inhibitor
T1 construct: L2/434/Bu GFP intracellular growth in HeLa cells
Outline: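 Post-fluorescence-read fixation, DNA staining with Hoechst and high-content imaging; GFP inclusion area and number per well, and nuclei counts, used as proxies for bacterial growth and host viability.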

Point of comparison: `Cc1cc(C)c(S(=O)(=O)NC(C)C)c(C)c1-n1cnnn1` [CBK270197], “% of control remaining” value 97.5491. Against it:
- Cc1[nH]c2ccccc2c1/C=N/c1ccc(/N=C/c2c(C)[nH]c3ccccc23)cc1 [CBK261226] — higher, 105.257
- Cc1nn(CC(=O)N2CCCCCC2)c(=O)c2cc3occc3n12 [CBK283624] — lower, 89.4097
- O=S(=O)(Nc1nnn[nH]1)c1ccc(-c2ccccc2)cc1 [CBK062381] — higher, 102.647
- O=C1CC(c2ccco2)CC(=O)C1=CNCCN1CCN(C(=O)Nc2ccc(Cl)cc2)CC1 (stereo not shown) [CBK264743] — higher, 112.8
- CCc1nnc2ccc(NCc3ccccc3)nn12 [CBK287888] — lower, 55.7137
- Cn1ncc(N2CCC(CNC(=O)c3ccccc3Cl)C2)cc1=O (stereo not shown) [CBK306747] — lower, 63.0711
- O=C(O)CCc1ccc(-c2ccc(F)cc2)n1CCc1ccccc1 [CBK265936] — lower, 82.5556
- CCOC(=O)c1cccc(-c2cc3ccccc3o2)n1 [CBK149243] — higher, 112.158
- COc1cccc(NC(=O)c2ccc(N(C)Cc3ccccc3)c([N+](=O)[O-])c2)c1 [CBK267827] — lower, 83.3679
- c1ccc(CSc2ccc3nnc(-c4ccncc4)n3n2)cc1 [CBK287625] — lower, 44.8089
- Sc1nnc(COc2ccc(Cl)cc2Cl)n1Cc1ccccc1 [CBK263138] — lower, 86.6851
- CCCS(=O)(=O)n1ccn(-c2ccc(Cl)c(Cl)c2)c1=O [CBK106667] — lower, 80.0345
- O=C(Nc1cccnc1)c1cc2cc(F)ccc2[nH]1 [CBK107272] — higher, 123.511
- COc1ccccc1CCNC(=O)N1CCC(Oc2cccnc2)CC1 [CBK307615] — lower, 65.6146
- CCCC(=O)Nc1ccc(OCCOC(C)(C)C)c(C(C)=O)c1 [CBK305691] — lower, 86.9704
- COc1ccc(CCNc2ncnc3c2cnn3-c2ccc(Cl)cc2)cc1OC [CBK265804] — lower, 91.7849
- N/N=C(\CCC(=O)O)c1ccccc1 [CBK261306] — lower, 75.6139
- Cc1ccccc1-c1nc(S(=O)(=O)c2ccc(Cl)cc2)c(NCC2CCCO2)o1 (stereo not shown) [CBK267668] — lower, 88.6084
- O=C(O)c1ccc(S(=O)(=O)c2ccc3c(c2)C(=O)N(c2ccc(Sc4ccc([N+](=O)[O-])cc4)cc2)C3=O)cc1 [CBK262869] — lower, 71.7205
- Cc1nn(C)cc1-c1cncn1CCn1nc(C)c(C)c1C [CBK281785] — lower, 90.5906
- NC1CCC(NC(=O)c2cnc(-c3ccc(Cl)cc3)c(-c3ccco3)c2)CC1 (stereo not shown) [CBK037563] — higher, 126.104
- COc1cccc(C(=O)Nc2nc(-c3ccc(S(=O)(=O)N4CCCC4)cc3)cs2)c1 [CBK096257] — lower, 91.9479
- COc1ccccc1-c1ccc(CC2(C(=O)NCc3cccc(F)c3)CCOCC2)cc1 [CBK286521] — lower, 86.6437
- O=C(O)CSc1nnc(-c2ccc3c(c2)OCO3)n1-c1ccccc1 [CBK131690] — lower, 80.4848
- Cc1nc2cccnc2n1CCNC(=O)c1cccc(Cl)c1 [CBK283593] — higher, 99.9821
- O=C(CC1S/C(=N/N=C/c2ccccc2C(=O)O)NC1=O)Nc1ccccc1 (stereo not shown) [CBK264515] — higher, 109.552
- Cc1cc(NS(=O)(=O)c2ccc(NC(=O)/C=C/c3ccc(C)o3)cc2)nc(C)n1 [CBK265474] — lower, 45.1126
- O=C1OCCN1S(=O)(=O)c1ccc(CN2CCCN(Cc3ccc(S(=O)(=O)N4CCOC4=O)cc3)CC2)cc1 [CBK024728] — lower, 96.4711
- C/C(=N\NC(=N)SC1CC(=O)N(c2ccc(C(=O)O)cc2)C1=O)c1cccs1 (stereo not shown) [CBK262471] — lower, 80.822
- CC(=O)N1CCN(c2ccccc2NC(=O)Cc2ccccc2C(=O)O)CC1 [CBK286802] — higher, 113.347
- Cc1cc(C)n(C)c(=O)c1C(=O)NC(C)Cc1ccccn1 (stereo not shown) [CBK283063] — higher, 104.815
- Cc1nn(C(C)CC(=O)NC2CCCOC2)c(C)c1C (stereo not shown) [CBK283133] — lower, 96.4729
- Cc1cc(C)n2nc(C(=O)NCCCn3ccnc3C(C)C)nc2n1 [CBK307635] — higher, 109.285
- COC(=O)c1ccc(-n2cc(-c3cccc(C(F)(F)F)c3)nn2)cc1 [CBK112936] — lower, 90.761
- CO[C@@H](C(=O)Nc1cnc(-c2ccc(F)cc2)c(-c2ccsc2)n1)c1ccccc1 [CBK036803] — lower, 82.0844
- Cc1cc(S(=O)(=O)Nc2cccc(Br)c2)c(C)cc1Cl [CBK043652] — lower, 93.8662
- N#CCCCN1CCC2(CC1)CN(C(=O)CO)c1ccccc12 [CBK137007] — lower, 34.7975
- CCNC(=O)Nc1cc2cccnc2nc1-c1cccc(C(F)(F)F)c1 [CBK070645] — higher, 106.843
- Cc1ccc2c(c1)cc(C)c1nn(CC(=O)N3CCCCC3)c(=O)n12 [CBK283870] — lower, 89.1848
- CNc1ccc2cccc(OCCO)c2n1 [CBK149727] — lower, 58.5268
- Cc1ccc(OCC(=O)Nc2ccc3c(c2)oc2ccccc23)cc1[N+](=O)[O-] [CBK266036] — higher, 124.368
- S=C(Nc1ccccc1)NC1C2CN3CCN(C2)CC1(c1ccccc1)C3 (stereo not shown) [CBK261936] — lower, 87.7789
- COCc1cc(=O)[nH]c(N2CCN(Cc3ccccc3)CC2)n1 [CBK270253] — higher, 128.303
- C[C@@H]1CN(C(=O)c2ccc3[nH]cnc3c2)C[C@H](C)O1 [CBK200120] — lower, 77.0692
- O=C1CC(c2cccs2)CC(=O)C1=CNCCN1CCNCC1 (stereo not shown) [CBK264785] — higher, 124.926
- CC(=O)C1=C(O)C(=O)N(CCCC(=O)O)C1c1cccc([N+](=O)[O-])c1 (stereo not shown) [CBK263801] — higher, 99.6977
- CC(C)C(NC(=O)C1C=CCN1S(C)(=O)=O)c1cccs1 (stereo not shown) [CBK282701] — higher, 120.19
- Cc1cccc(-c2nc(CN(C)CC(=O)NC(C)C)no2)c1 [CBK305109] — lower, 44.5822
- Cc1cccc(C)c1-c1cn2ccnc2c(NC2CCOCC2)n1 [CBK037311] — higher, 120.092
- COc1cc(Cn2c(=O)[nH]c3ncc(-c4ccco4)nc32)cc(OC)c1OC [CBK064461] — lower, 74.3208
- Cn1[nH]c(CO)c(Cc2c(Cl)cccc2Cl)c1=O [CBK092278T] — higher, 124.672
- Cc1ccc(C2=NN(C(=N)SC3CC(=O)N(c4ccc(C(=O)O)cc4)C3=O)C(c3ccc(Cl)cc3)C2)cc1 (stereo not shown) [CBK262472] — lower, 96.682
- COc1ccc(C(NC(=O)CSCc2cccc(C(=O)O)c2)c2ccc(OC)cc2)cc1 [CBK296680] — lower, 86.7784
- Cc1cc(C)n(CCCC(=O)N2CCOCC(O)(CN3CCCC3)C2)n1 (stereo not shown) [CBK306550] — lower, 39.7846
- CC1CCCC(C)N1C(=O)CN1C2CCC1CC(O)(c1ccco1)C2 (stereo not shown) [CBK284043] — higher, 104.17
- FC(F)(F)c1ccc(CN2CCCN(c3ccnc(OCC4COc5ccccc5O4)n3)CC2)cc1 (stereo not shown) [CBK083233T] — lower, 84.6533
- COc1ccc(CN(C)c2c(C)nc3c(OCC(=O)C(C)(C)C)cccn23)cc1 [CBK147458] — higher, 126.496
- Cc1cc2nc(/C(C#N)=C/c3ccncc3)[nH]c2cc1C [CBK268745] — lower, 93.5388
- CN1C(=O)C2(CC(=O)N(Cc3ccccc3)C2=O)c2cc(F)ccc21 (stereo not shown) [CBK075268] — higher, 98.3224
- O=C(O)c1ccc(COc2ccc(/C=C3\SC(=S)N(Cc4cccnc4)C3=O)cc2Cl)cc1 [CBK264672] — higher, 116.856
- COCCNC(=O)C1CCN(c2nc3c(-c4ccccc4F)csc3c(=O)[nH]2)CC1 [CBK215434] — higher, 101.673
- Cc1nc(-c2ccccc2)sc1CNC(=O)Cc1ccccc1F [CBK092372] — lower, 97.463
- CS(=O)(=O)N(Cc1ccccc1)c1ccc(C(=O)Nc2ccccc2Cl)cc1 [CBK262745] — higher, 99.064
- CCc1cc(CNC(=O)c2ccc(C)c(-n3nc(C)cc3C)c2)on1 [CBK281557] — higher, 105.291
- COc1ccc(S(=O)(=O)Nc2ccccc2C(=O)O)cc1OC [CBK042368] — higher, 118.011
- CC(C)NC(=O)CN1CCN(c2ccc(C#N)cc2Cl)CC1 [CBK305470] — lower, 72.2678
- Cc1ccc(C(=O)NCc2nc3ccccc3[nH]2)c(N2CCOCC2)n1 [CBK106200] — lower, 81.4043
- Nc1ncc(-c2ccncc2)nc1-c1ccc(C=O)cc1 [CBK064102] — higher, 105.354
- CN(C(=O)NC1CCCc2c1cnn2CCO)c1ccccc1F (stereo not shown) [CBK304024] — lower, 75.4978
- CC(C)Nc1cc(Sc2ccc(F)cc2)ncn1 [CBK089498] — lower, 88.1767
- Cc1ccc(-c2csc3ncn4nnnc4c23)cc1 [CBK019710] — lower, 91.3948
- CN(C)C(=O)C1(Cc2ccc(-c3cccs3)cc2)CCN(C(=O)c2ccccc2)CC1 [CBK286270] — lower, 89.1452
- O=C(N/N=C/c1ccc(-c2ccc([N+](=O)[O-])cc2)o1)c1cccnc1 [CBK262287] — higher, 98.9026
- CCCN1CC(NS(=O)(=O)c2ccc(OC)c3c2CCCC3)CC1=O (stereo not shown) [CBK307098] — lower, 88.6704
- Nc1ccc([C@@H]2CN(Cc3ccccc3)C[C@]23CCCC(=O)N3)cc1 [CBK284649] — higher, 105.102
- CCCN1CCCC(NS(=O)(=O)c2cc(-n3cccn3)ccc2OC)C1 (stereo not shown) [CBK307426] — lower, 29.4715
- CC(C)(C)NC(NC(=O)Cc1ccccc1)C(Cl)(Cl)Cl (stereo not shown) [CBK261090] — lower, 86.1728
- Cc1csc2ncc(C(=O)Nc3ccc(Cl)c(Cl)c3)c(=O)n12 [CBK287459] — lower, 79.1556
